Reference: paper PMC5360572 (EBioMedicine, 2017)

Legend:
Assay in all cases: SPR; BIAcore 3000, 25 °C; PD-L1-Ig or PD-L2-Ig immobilized on CM5 chip by amine coupling; soluble monomeric PD-1 or mutants (0.01–100 μM) injected at 20 μl/min; equilibrium Kd, 1:1 Langmuir model
Conditions in all cases: both partners purified
[1] = target: T1, mouse PD-L2 Ig fusion protein (mouse, UniProt Q9WUL5 20-221)
T1 construct: mouse PD-L2 part of a bought Ig fusion protein; also called mPD-L2; murine PD-L2-Ig; source: bought: R&D Systems
T1 sequence (looked up): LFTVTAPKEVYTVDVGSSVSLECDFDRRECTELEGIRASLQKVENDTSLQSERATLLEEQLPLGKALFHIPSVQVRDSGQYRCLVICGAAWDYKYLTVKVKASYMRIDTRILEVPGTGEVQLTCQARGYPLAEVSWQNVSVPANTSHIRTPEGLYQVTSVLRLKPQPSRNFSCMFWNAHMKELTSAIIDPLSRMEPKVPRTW

[2] = target: T2, mouse PD-L1 Ig fusion protein (mouse, UniProt Q9EP73 fragment)
T2 construct: mouse PD-L1 part of a bought Ig fusion protein; also called mPD-L1; murine PD-L1-Ig; source: bought: R&D Systems

[3] = target: T3, human PD-L2 Ig fusion protein (human, UniProt Q9BQ51 20-220)
T3 construct: characterized by SEC prior to use; also called huPD-L2; B7-DC; source: bought: R&D Systems
T3 sequence (looked up): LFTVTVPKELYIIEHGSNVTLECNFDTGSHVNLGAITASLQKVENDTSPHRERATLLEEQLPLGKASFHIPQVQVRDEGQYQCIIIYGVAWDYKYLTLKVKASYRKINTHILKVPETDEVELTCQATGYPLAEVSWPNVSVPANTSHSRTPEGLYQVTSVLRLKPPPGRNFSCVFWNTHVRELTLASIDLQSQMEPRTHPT

T2 sequence (Q9EP73 19-239): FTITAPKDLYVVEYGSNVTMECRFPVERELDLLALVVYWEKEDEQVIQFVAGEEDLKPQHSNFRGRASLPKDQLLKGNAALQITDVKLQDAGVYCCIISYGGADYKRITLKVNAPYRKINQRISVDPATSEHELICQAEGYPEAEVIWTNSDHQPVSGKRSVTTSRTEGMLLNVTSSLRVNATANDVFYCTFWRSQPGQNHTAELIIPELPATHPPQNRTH

Kd [1]: 29 nM
Kd [2]: 230 nM
Kd [3]: 6.5 nM
B1: human PD-1 A132L mutant extracellular IgV domain (soluble, monomeric) (domain or fragment)
chain: not shown
notes: numbering relative to the initiator methionine; crystal structure of this mutant alone deposited as PDB 3RRQ; also called huA132L; HA PD-1
